From the supplement of paper PMC12217912
The other results are listed elsewhere or left out. Sequences were assembled here from the parent chain. Inactive controls read about 0.05.

B1: TEV protease; numbered along this chain (parent)
chain: MGESLFKGPRDYNPISSSICHLTNESDGHTTSLYGIGFGPFIITNKHLFRRNNGTLVVQSLHGVFKVKDTTTLQQHLVDGRDMIIIRMPKDFPPFPQKLKFREPQREERICLVTTNFQTKSMSSMVSDTSCTFPSGDGIFWKHWIQTKDGQCGSPLVSTRDGFIVGIHSASNFTNTNNYFTSVPKNFMELLTNQEAQQWVSGWRLNADSVLWGGHKVFMVKPEEPFQPVKEATQL

Variants of: B1
Experiment: raw area under fraction-flipped curve 0-4 h after induction (AUC4h, not background-subtracted), DNA-recorder readout of cleavage of the substrate (dimensionless); higher = more cleavage of the substrate by the protease variant
Settings: temperature: 34 °C; time window: 0-4 h after rhamnose induction
Protocol: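 In vivo DNA recorder in E. coli TOP10(DE3) ΔrhaA at 34 °C. Each TEVp single-site mutant (parent TEVp 0) is paired with a single-site variant of the 7-mer TEVs (canonical ENLYFQ|S). The substrate sits between flexible linkers in a Bxb1-sfGFP-TEVs-SsrA fusion, so cleavage stabilises Bxb1 and speeds flipping of a recombination array, read by NGS. The value is the raw area under the fraction-flipped curve over 0-4 h after rhamnose induction (AUC4h), with ≥20 reads per time point. It is not background-subtracted; inactive controls average about 0.047.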
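Further: Bxb1 expression induced with 0.2% (w/v) L-rhamnose at OD600 near 0.5, cultures sampled hourly, flipped fraction per protease–substrate barcode pair counted by paired-end Illumina sequencing.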

Row | Variant | area with substrate ENLYFAS | area with substrate ENLYFCS | area with substrate ENLYFDS | area with substrate ENLYFFS | area with substrate ENLYFIS | area with substrate ENLYFMS | area with substrate ENLYFPS | area with substrate ENLYFRS | area with substrate ENLYFSS | area with substrate ENLYFTS | area with substrate ENLYFVS | area with substrate ENLYFKS | area with substrate ENLYFLS | area with substrate ENLYFES | area with substrate ENLYFNS | area with substrate ENLYFWS | area with substrate ENLYFHS | area with substrate ENLYFYS | area with substrate ENLYFGS
1 | E3I | 0.0449 | 0.0541 | 0.0529 | 0.0742 | 0.0608 | 0.0761 | 0.0499 | 0.0547 | 0.055 | 0.0636 | 0.0377 | – | – | – | – | – | – | – | –
2 | L5Y | 0.0574 | – | 0.0462 | 0.0651 | 0.0623 | 0.0655 | 0.0644 | – | 0.0536 | 0.0621 | 0.0364 | 0.0622 | 0.0521 | – | – | – | – | – | –
3 | F6K | 0.0626 | – | – | 0.0673 | 0.0604 | – | 0.0616 | 0.0662 | 0.0576 | 0.0694 | 0.0688 | – | – | 0.0024 | 0.0735 | 0.0379 | – | – | –
4 | K7N | 0.0584 | 0.0234 | 0.0598 | – | 0.0668 | 0.0631 | 0.0681 | – | 0.0637 | 0.0595 | – | 0.0637 | – | 0.0724 | 0.0685 | – | 0.0666 | – | –
5 | K7P | 0.0686 | 0.0602 | – | – | 0.0632 | 0.0699 | 0.0614 | 0.0686 | – | – | – | 0.0661 | – | 0.0729 | 0.0739 | – | – | – | –
6 | G8E | 0.0545 | – | – | 0.0672 | – | – | – | 0.0516 | 0.0713 | – | – | – | – | – | – | – | – | – | –
7 | Y12F | 0.0674 | 0.0523 | 0.0593 | 0.0611 | 0.0536 | 0.0669 | 0.0627 | 0.0658 | 0.0395 | 0.0635 | 0.0522 | – | – | 0.0564 | 0.0601 | 0.0565 | – | – | –
8 | P14Q | 0.0654 | 0.0553 | – | 0.0559 | 0.053 | 0.0668 | 0.0637 | 0.0443 | 0.0565 | 0.0678 | 0.0648 | 0.0572 | – | 0.0552 | 0.0638 | 0.0551 | 0.0587 | 0.0625 | –
9 | P14V | 0.0666 | 0.0738 | 0.0537 | 0.0642 | 0.0579 | 0.0714 | 0.0679 | 0.0705 | 0.0634 | 0.0615 | 0.0541 | 0.0557 | – | 0.0618 | 0.0599 | 0.0551 | 0.066 | 0.045 | 0.0569
10 | I15V | 0.0444 | 0.0405 | – | – | 0.0535 | 0.0657 | 0.0605 | 0.073 | 0.0781 | 0.0532 | 0.0613 | 0.0861 | 0.0595 | 0.0606 | 0.0511 | 0.0542 | 0.0592 | – | 0.0727
11 | S16P | 0.0694 | 0.0603 | 0.0565 | 0.0684 | 0.0609 | 0.0677 | 0.0576 | 0.064 | 0.0748 | 0.0516 | – | 0.0369 | 0.0686 | 0.067 | 0.0618 | – | 0.0818 | – | –
12 | S17Y | 0.0566 | 0.0548 | 0.0472 | 0.0628 | 0.0542 | 0.0708 | 0.0539 | 0.054 | 0.049 | 0.0571 | – | 0.0804 | – | – | 0.063 | 0.0578 | 0.0547 | 0.0576 | 0.0401
13 | C20K | 0.0489 | 0.0482 | – | 0.0542 | 0.0437 | 0.0524 | 0.0398 | 0.0398 | 0.0455 | 0.0526 | 0.0588 | 0.0504 | 0.0611 | 0.0436 | 0.047 | 0.0541 | 0.0456 | – | 0.0487
14 | C20Y | 0.0517 | 0.0404 | 0.0466 | 0.0267 | 0.049 | 0.0314 | 0.0592 | – | – | – | – | – | – | – | – | 0.0718 | – | 0.0519 | –
15 | L22F | 0.0488 | 0.0741 | 0.0508 | 0.0619 | 0.05 | 0.0609 | 0.0553 | – | 0.0553 | 0.0582 | 0.0481 | 0.0524 | 0.0366 | 0.0535 | 0.0612 | 0.0556 | 0.0253 | 0.0519 | 0.0548
16 | S26M | 0.0668 | 0.0598 | 0.0526 | 0.063 | 0.0562 | 0.0685 | 0.0637 | 0.0679 | 0.056 | 0.0666 | 0.0635 | 0.0719 | – | 0.049 | 0.0634 | 0.0594 | 0.0593 | 0.0511 | –
17 | D27R | 0.0728 | 0.051 | – | 0.0524 | 0.052 | 0.0786 | 0.0651 | 0.0586 | 0.0466 | 0.0413 | – | – | – | 0.0525 | 0.0675 | 0.0546 | 0.0383 | 0.0443 | 0.0666
18 | D27Y | 0.0576 | – | 0.0547 | 0.0605 | 0.0543 | 0.0602 | 0.0695 | 0.0593 | 0.0559 | 0.0595 | – | 0.0589 | 0.0521 | 0.0632 | 0.0626 | 0.0719 | 0.0422 | 0.0718 | 0.0619
19 | G28V | 0.0558 | 0.0513 | 0.058 | 0.0633 | 0.0608 | 0.0686 | 0.0629 | 0.0534 | 0.0532 | 0.0738 | 0.0606 | – | – | – | 0.0539 | – | 0.041 | – | –
20 | T30A | 0.0542 | 0.0595 | 0.0591 | 0.0772 | 0.0586 | 0.0663 | 0.0532 | 0.0503 | 0.0665 | 0.0549 | – | 0.0583 | 0.0641 | 0.0562 | 0.0623 | 0.0511 | 0.0452 | – | –
21 | L33C | 0.0642 | – | – | 0.08 | 0.0564 | 0.0845 | – | – | 0.0563 | – | 0.0449 | 0.0515 | – | 0.0451 | 0.0677 | 0.039 | 0.0642 | – | 0.0715
22 | L33E | 0.0689 | 0.0495 | 0.0514 | 0.0669 | 0.0535 | 0.0585 | 0.0584 | 0.0544 | 0.0635 | 0.0635 | – | – | – | 0.0585 | – | – | 0.0484 | 0.0514 | –
23 | G35C | 0.0479 | – | – | – | 0.0451 | – | 0.0805 | – | – | 0.0378 | 0.0584 | 0.0634 | – | – | 0.047 | 0.0378 | – | – | 0.0496
24 | F41R | 0.037 | 0.0268 | 0.0495 | 0.0596 | 0.05 | 0.0561 | 0.0544 | – | – | 0.053 | – | 0.0482 | – | 0.0567 | 0.0551 | 0.0314 | 0.0677 | – | 0.0485
25 | F41S | 0.0545 | 0.0415 | 0.0582 | 0.0656 | 0.0475 | – | 0.0528 | 0.0496 | – | 0.0639 | – | 0.0606 | 0.0642 | 0.063 | 0.0516 | 0.073 | 0.0536 | 0.0494 | 0.0424
